Binding signal (RPM ratio (pull-down/input)) data for 32 sequences are collected here from paper PMC12820563.

The other results are listed elsewhere or left out. The list includes weakly bound sequences.

The target in the assay is T1, MBP-FoxP3dN (UniProt Q99JB6).
T1 sequence: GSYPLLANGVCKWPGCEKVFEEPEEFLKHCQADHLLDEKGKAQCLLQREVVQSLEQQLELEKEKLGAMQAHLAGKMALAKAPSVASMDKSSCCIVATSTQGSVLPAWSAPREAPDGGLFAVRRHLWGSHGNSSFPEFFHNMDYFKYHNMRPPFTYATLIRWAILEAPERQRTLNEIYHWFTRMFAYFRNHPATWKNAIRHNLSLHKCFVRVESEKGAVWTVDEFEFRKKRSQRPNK
Kind of assay: PD-seq (MBP pull-down with sequencing). The following applies: 20 mM Tris-HCl pH 7.5, 100 mM NaCl, 1.5 mM MgCl2, 0.4 uM protein, 0.1 uM dsDNA library, 30 min, room temperature, amylose pull-down; high values mean tight binding; double strand, one strand shown.
For “GATGATTGTTCTCCCAGCTGATGAATTAGAGGATTCGAGTAAACAAATTTTCCTAATCTTTCTGTTCAAGCGCCATCTAC”, the binding signal (RPM ratio (pull-down/input)) was found to be 0.33.

As to “GATGATTGTTCTCCCAGCTGATGAATTAGGCCCCTCGAGTAAACAAATTTTCCTAATCTTTCTGTTCAAGCGCCATCTAC”, the binding signal (RPM ratio (pull-down/input)) worked out at 1.04.

Take “GATGATTGTTCTCCCAGCTGATGAATTGCACAAGTCGAGTAAACAAATTTTCCTAATCTTTCTGTTCAAGCGCCATCTAC”: the binding signal (RPM ratio (pull-down/input)) is 0.625.

Turning to “GATGATTGTTCTCCCAGCTGATGAATTGAATTTCTCGAGTAAACAAATTTTCCTAATCTTTCTGTTCAAGCGCCATCTAC”, the binding signal (RPM ratio (pull-down/input)) amounted to 0.7.

Turning to “GATGATTGTTCTCCCAGCTGATGAATTGAAGCATTCGAGTAAACAAATTTTCCTAATCTTTCTGTTCAAGCGCCATCTAC”, the binding signal (RPM ratio (pull-down/input)) stood at 4.38.

For “GATGATTGTTCTCCCAGCTGATGAATTGCATAAGTCGAGTAAACAAATTTTCCTAATCTTTCTGTTCAAGCGCCATCTAC”, the binding signal (RPM ratio (pull-down/input)) came out at 0.625.

“GATGATTGTTCTCCCAGCTGATGAATTGTTACAATCGAGTAAACAAATTTTCCTAATCTTTCTGTTCAAGCGCCATCTAC”: the binding signal (RPM ratio (pull-down/input)) was 1.61.

Take “GATGATTGTTCTCCCAGCTGATGAATTTTCGCAATCGAGTAAACAAATTTTCCTAATCTTTCTGTTCAAGCGCCATCTAC”: the binding signal (RPM ratio (pull-down/input)) amounted to 3.04.

For the sequence “GATGATTGTTCTCCCAGCTGATGAATTCAAGACTTCGAGTAAACAAATTTTCCTAATCTTTCTGTTCAAGCGCCATCTAC”, the binding signal (RPM ratio (pull-down/input)) was found to be 0.32.

In the case of “GATGATTGTTCTCCCAGCTGATGAATTACCAGTTTCGAGTAAACAAATTTTCCTAATCTTTCTGTTCAAGCGCCATCTAC”, the binding signal (RPM ratio (pull-down/input)) was 0.37.

In the case of “GATGATTGTTCTCCCAGCTGATGAATTAACTACTTCGAGTAAACAAATTTTCCTAATCTTTCTGTTCAAGCGCCATCTAC”, the binding signal (RPM ratio (pull-down/input)) came to 0.333.

Turning to “GATGATTGTTCTCCCAGCTGATGAATTAAATTGGTCGAGTAAACAAATTTTCCTAATCTTTCTGTTCAAGCGCCATCTAC”, the binding signal (RPM ratio (pull-down/input)) came to 0.968.

Turning to “GATGATTGTTCTCCCAGCTGATGAATTGCTACAGTCGAGTAAACAAATTTTCCTAATCTTTCTGTTCAAGCGCCATCTAC”, the binding signal (RPM ratio (pull-down/input)) was determined as 0.584.

As to “GATGATTGTTCTCCCAGCTGATGAATTACGGACATCGAGTAAACAAATTTTCCTAATCTTTCTGTTCAAGCGCCATCTAC”, the binding signal (RPM ratio (pull-down/input)) came to 0.47.

In the case of “GATGATTGTTCTCCCAGCTGATGAATTTCAAAATTCGAGTAAACAAATTTTCCTAATCTTTCTGTTCAAGCGCCATCTAC”, the binding signal (RPM ratio (pull-down/input)) worked out at 0.184.

For the sequence “GATGATTGTTCTCCCAGCTGATGAATTCCGTTGATCGAGTAAACAAATTTTCCTAATCTTTCTGTTCAAGCGCCATCTAC”, the binding signal (RPM ratio (pull-down/input)) was determined as 1.38.

In the case of “GATGATTGTTCTCCCAGCTGATGAATTTGGGACCTCGAGTAAACAAATTTTCCTAATCTTTCTGTTCAAGCGCCATCTAC”, the binding signal (RPM ratio (pull-down/input)) was found to be 0.378.

Take “GATGATTGTTCTCCCAGCTGATGAATTCCGAGTTTCGAGTAAACAAATTTTCCTAATCTTTCTGTTCAAGCGCCATCTAC”: the binding signal (RPM ratio (pull-down/input)) stood at 1.13.

With “GATGATTGTTCTCCCAGCTGATGAATTCAGACCTTCGAGTAAACAAATTTTCCTAATCTTTCTGTTCAAGCGCCATCTAC”, the binding signal (RPM ratio (pull-down/input)) stood at 0.26.

Take “GATGATTGTTCTCCCAGCTGATGAATTACAATCCTCGAGTAAACAAATTTTCCTAATCTTTCTGTTCAAGCGCCATCTAC”: the binding signal (RPM ratio (pull-down/input)) turned out to be 0.553.

As for “GATGATTGTTCTCCCAGCTGATGAATTTGAAAACTCGAGTAAACAAATTTTCCTAATCTTTCTGTTCAAGCGCCATCTAC”, the binding signal (RPM ratio (pull-down/input)) turned out to be 0.25.

With “GATGATTGTTCTCCCAGCTGATGAATTGTGTAAATCGAGTAAACAAATTTTCCTAATCTTTCTGTTCAAGCGCCATCTAC”, the binding signal (RPM ratio (pull-down/input)) is 0.96.

On to “GATGATTGTTCTCCCAGCTGATGAATTCGAAGGCTCGAGTAAACAAATTTTCCTAATCTTTCTGTTCAAGCGCCATCTAC”, for which the binding signal (RPM ratio (pull-down/input)) is 0.312.

In the case of “GATGATTGTTCTCCCAGCTGATGAATTTACAGGTTCGAGTAAACAAATTTTCCTAATCTTTCTGTTCAAGCGCCATCTAC”, the binding signal (RPM ratio (pull-down/input)) was 0.504.

As to “GATGATTGTTCTCCCAGCTGATGAATTGGCACTCTCGAGTAAACAAATTTTCCTAATCTTTCTGTTCAAGCGCCATCTAC”, the binding signal (RPM ratio (pull-down/input)) was found to be 0.498.

Turning to “GATGATTGTTCTCCCAGCTGATGAATTAGGTCGCTCGAGTAAACAAATTTTCCTAATCTTTCTGTTCAAGCGCCATCTAC”, the binding signal (RPM ratio (pull-down/input)) turned out to be 0.347.

“GATGATTGTTCTCCCAGCTGATGAATTTAGTAATTCGAGTAAACAAATTTTCCTAATCTTTCTGTTCAAGCGCCATCTAC”: the binding signal (RPM ratio (pull-down/input)) is 1.36.

On to “GATGATTGTTCTCCCAGCTGATGAATTCGATGTTTCGAGTAAACAAATTTTCCTAATCTTTCTGTTCAAGCGCCATCTAC”, for which the binding signal (RPM ratio (pull-down/input)) is 3.43.

In the case of “GATGATTGTTCTCCCAGCTGATGAATTTCAGCTTTCGAGTAAACAAATTTTCCTAATCTTTCTGTTCAAGCGCCATCTAC”, the binding signal (RPM ratio (pull-down/input)) was found to be 0.952.

Regarding “GATGATTGTTCTCCCAGCTGATGAATTGGCGAACTCGAGTAAACAAATTTTCCTAATCTTTCTGTTCAAGCGCCATCTAC”, the binding signal (RPM ratio (pull-down/input)) amounted to 0.265.

For “GATGATTGTTCTCCCAGCTGATGAATTAATGAGTTCGAGTAAACAAATTTTCCTAATCTTTCTGTTCAAGCGCCATCTAC”, the binding signal (RPM ratio (pull-down/input)) is 0.903.

On to “GATGATTGTTCTCCCAGCTGATGAATTCCTCCGCTCGAGTAAACAAATTTTCCTAATCTTTCTGTTCAAGCGCCATCTAC”, for which the binding signal (RPM ratio (pull-down/input)) amounted to 0.198.
